Reference: the supplement of paper PMC3724861
This is one part of the list.

Each sequence was assayed on T1, Caupolican (Caup) homeodomain DNA-binding domain (assay: PBM E-score (8-mer, recovered from the published 9-mer minima) (E-score (dimensionless, -0.5 to 0.5)); Drosophila protein; higher = stronger relative binding preference, active = 0.31 or more).
T1 sequence: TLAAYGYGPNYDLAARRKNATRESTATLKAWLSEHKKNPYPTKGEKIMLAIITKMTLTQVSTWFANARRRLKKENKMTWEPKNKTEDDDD
How it was run: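 An enrichment score, with higher meaning stronger, expresses relative binding preference for each short DNA word. The protein used was Caup's homeodomain DNA-binding domain (residues 214-303), produced by in vitro transcription and translation and tested at 100 nM on custom-designed protein binding microarrays. The 8-mer values were recovered from published 9-mer scores, each equal to the lower of its two constituent 8-mer scores.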

| Sequence | PBM E-score |
| --- | --- |
| CGATCCCG | inactive: -0.131 |
| AATCTATG | inactive: 0.108 |
| GATTTGAC | inactive: 0.0669 |
| CCAGCTGC | inactive: -0.255 |
| CTGTCGGC | inactive: -0.141 |
| AGCGTGGC | inactive: -0.21 |
| ACTTCGCT | ≥ -0.0099 |
| CATAGTTA | inactive: 0.169 |
| CGAAACCC | inactive: -0.0886 |
| ACACGCTG | inactive: 0.229 |
| ATAAGCTC | inactive: -0.107 |
| TACAACGA | inactive: 0.267 |
| CAATTTGA | inactive: 0.0278 |
| CGGAGGTC | inactive: -0.162 |
| CCCTGACA | inactive: 0.133 |
| CCCCGCGA | inactive: -0.22 |
| ATAGCCCA | inactive: -0.0431 |
| GAGGACAA | inactive: 0.0656 |
| CAAGTGTA | inactive: 0.244 |
| ACAATCCC | inactive: -0.0374 |
| AAGTTGGT | inactive: 0.0109 |
| ACAAGGAA | inactive: 0.247 |
| CTACTATA | inactive: 0.0895 |
| GCGCGCAA | inactive: -0.126 |
| GGGGGTTA | inactive: -0.214 |

| Sequence | PBM E-score |
| --- | --- |
| CGCCGTCC | inactive: -0.205 |
| CCGGGATA | inactive: -0.0468 |
| GTACCGGA | inactive: 0.0226 |
| AGTACTCA | inactive: 0.0849 |
| ACTAGAGA | inactive: -0.0382 |
| CCGGTCTC | inactive: -0.109 |
| AGCATGCG | inactive: -0.0296 |
| CGGGCGAC | inactive: -0.187 |
| AGTCGTGA | inactive: 0.0171 |
| CTATGTGC | inactive: 0.0747 |
| AGCAGAAC | inactive: 0.0217 |
| CGGGAATA | inactive: 0.0503 |
| CTTGGACC | inactive: -0.0867 |
| GGGGTTAC | inactive: -0.13 |
| ACGTTGGC | inactive: -0.0739 |
| CGTATTGC | inactive: -0.0432 |
| GGCGACCC | inactive: -0.258 |
| GACCATAC | inactive: 0.00514 |
| AGTTAAGA | inactive: 0.131 |
| CGCTGACC | inactive: -0.175 |
| AAGTTCAG | ≥ 0.0717 |
| AAACGCAG | inactive: -0.0755 |
| GACTGGTA | inactive: 0.109 |
| AGCACTTG | inactive: -0.0253 |
| CTAGCACC | inactive: -0.0146 |

| Sequence | PBM E-score |
| --- | --- |
| ACCTTCCC | inactive: -0.167 |
| CCACGGCA | inactive: -0.142 |
| AGTCATTG | inactive: 0.121 |
| AGTGTTAG | inactive: 0.185 |
| TCAGGCCA | ≥ -0.0404 |
| ATACCTTA | inactive: 0.06 |
| TAAGGCAA | inactive: 0.014 |
| CCATGTAA | active: 0.404 |
| ACTCTCAT | ≥ 0.0596 |
| AGATACCA | ≥ 0.123 |
| CCGAACTC | inactive: -0.125 |
| AGTGCAGG | inactive: -0.0932 |
| ACAGGGAG | inactive: -0.115 |
| GGCTGTCA | inactive: 0.0147 |
| CCGTTGCC | inactive: -0.134 |
| CCCGGCGC | inactive: -0.315 |
| ACTGAAGA | inactive: 0.0217 |
| AGGGGGAG | inactive: -0.354 |
| AGCCGTTG | inactive: 0.0406 |
| AGAACCGG | inactive: -0.0482 |
| ATCCCCAG | inactive: -0.0913 |
| ACGCCTCC | inactive: -0.175 |
| AAATCCTA | inactive: 0.0973 |
| CACCGAAA | inactive: 0.114 |
| ATCTGCGG | inactive: -0.116 |

| Sequence | PBM E-score |
| --- | --- |
| ACCAATTG | inactive: 0.0368 |
| CTCACAGC | inactive: -0.124 |
| GCGCCTAA | inactive: -0.114 |
| ACTAACCA | inactive: 0.169 |
| CATAGGAG | inactive: 0.101 |
| ACCCGACG | inactive: -0.229 |
| AGAGATTA | inactive: 0.06 |
| GATCCGAC | inactive: -0.0368 |
| ACTCGGCT | inactive: -0.162 |
| AGTCCATA | inactive: 0.0813 |
| AATCTTAC | inactive: 0.124 |
| CGGCAGCC | inactive: -0.2 |
| GCAGACCC | inactive: -0.251 |
| CGTATTCC | inactive: 0.0379 |
| CATGGTGG | inactive: 0.0166 |
| AACTCGGA | inactive: -0.00245 |
| AGACGTCA | inactive: -0.099 |
| AAGCACAT | inactive: 0.0518 |
| CTTTCCAA | inactive: -0.0212 |
| AATCGTGT | active: 0.324 |
| AAGATGTC | inactive: 0.244 |
| AGTCTTAC | inactive: 0.0905 |
| ACGTCCGA | inactive: -0.012 |
| AGCTTGCA | inactive: -0.0141 |
| AAGTTTGA | inactive: -0.0194 |

| Sequence | PBM E-score |
| --- | --- |
| CACGAGCC | inactive: -0.0732 |
| TCACACAA | inactive: 0.193 |
| GAATCTGA | inactive: 0.0979 |
| AACGCACG | inactive: -0.032 |
| ACAATTTA | inactive: 0.199 |
| CTTCTGCA | inactive: -0.104 |
| GCGAACGA | inactive: 0.00689 |
| ACACCCTC | inactive: -0.0435 |
| ATGCGACA | inactive: 0.25 |
| GGCCGGCC | inactive: -0.338 |
| AATCCCGG | inactive: -0.024 |
| GGCAGCAA | inactive: -0.0662 |
| CTTGCGGC | inactive: -0.228 |
| CTCCAGGC | inactive: -0.216 |
| ATTATTCG | inactive: 0.138 |
| CGTAATAC | inactive: 0.16 |
| CCGCTGGA | inactive: -0.183 |
| ACCCCGTG | inactive: -0.0583 |
| GTAAGGAA | inactive: 0.0866 |
| CGAGCGAG | inactive: 0.00691 |
| TTAAAAAA | inactive: 0.0678 |
| GTAGCATA | inactive: 0.143 |
| AATTTAAC | inactive: 0.155 |
| CACACTAC | inactive: 0.162 |
| ATCCACGG | inactive: -0.0445 |

| Sequence | PBM E-score |
| --- | --- |
| GTCCCGTA | inactive: 0.0198 |
| CCGTATCC | inactive: -0.0823 |
| CATGTGCC | inactive: 0.166 |
| GCGTAACA | inactive: 0.221 |
| AATTTGCA | inactive: -0.0111 |
| GTCAAACA | inactive: 0.253 |
| CCCATGGC | inactive: -0.258 |
| CTCCTTCA | inactive: -0.179 |
| CAGGGGCA | inactive: -0.0811 |
| AGGGATAT | inactive: -0.00275 |
| ATAAACAA | inactive: 0.254 |
| CTCATGAA | inactive: 0.0374 |
| AGTTTGTG | inactive: 0.0508 |
| AGGTTGAC | inactive: 0.0115 |
| GTACATTA | active: 0.322 |
| AAGGATTA | inactive: 0.0924 |
| CTAGTTAC | inactive: 0.103 |
| AACTTGCG | inactive: -0.0904 |
| ATCAGACA | inactive: 0.215 |
| CCGATCCA | inactive: -0.0439 |
| AATCGGCC | inactive: -0.163 |
| GGTGATTA | inactive: 0.0603 |
| AACGGGCT | inactive: -0.179 |
| ACCCTCCA | inactive: -0.157 |
| CATCAGGG | inactive: -0.1 |

| Sequence | PBM E-score |
| --- | --- |
| AGCAACCG | inactive: -0.0428 |
| GGCCCCAC | inactive: -0.259 |
| CTGACTTC | inactive: -0.0831 |
| CACGCTGG | inactive: -0.0853 |
| CAAGTACA | active: 0.342 |
| AAAGTTTC | inactive: 0.0415 |
| GGCAATGA | inactive: 0.00568 |
| CAGGTGAG | inactive: -0.128 |
| GAGTCGCA | inactive: -0.0749 |
| AAGGCATG | inactive: 0.0377 |
| AGGCGTAA | inactive: -0.0182 |
| CGCATACC | inactive: 0.0193 |
| ACTAGCAT | inactive: 0.121 |
| CAGACGGA | inactive: -0.0614 |
| ACATATTC | active: 0.329 |
| AAACCTGT | inactive: 0.206 |
| AACGAAGC | inactive: -0.0846 |
| CGACACGA | inactive: 0.286 |
| CTCAATTA | inactive: 0.0935 |
| CCTTCTCC | inactive: -0.187 |
| CCAACGTC | inactive: -0.1 |
| ATCCTCAT | inactive: -0.0316 |
| GGTCCGCA | inactive: -0.174 |
| AGGCAGTC | inactive: -0.167 |
| CTAATAAG | inactive: 0.0971 |

| Sequence | PBM E-score |
| --- | --- |
| ACCTGCAT | inactive: -0.0357 |
| GTAATGCA | inactive: 0.133 |
| TCCCAAGA | inactive: -0.0874 |
| ACCTACAC | inactive: 0.186 |
| GACCGGCA | inactive: -0.111 |
| GTGATGAA | inactive: 0.0845 |
| ATGTCTTA | inactive: 0.284 |
| CCAGCTAA | inactive: -0.0883 |
| ACACGGGT | inactive: 0.282 |
| ATTCAGTA | inactive: 0.122 |
| GTAACGCA | inactive: 0.0272 |
| CCAGAGTC | inactive: -0.051 |
| ACAAACAT | active: 0.368 |
| AAAAGCTG | inactive: -0.0792 |
| AATAATGT | inactive: 0.215 |
| CACATGAC | inactive: 0.242 |
| CGAACGGA | ≥ 0.0258 |
| CGGACAAC | inactive: 0.235 |
| CCCGAGCA | inactive: -0.124 |
| ATAGTGAA | inactive: 0.143 |
| GAGTACAA | inactive: 0.262 |
| ACACGCCC | inactive: 0.0902 |
| GGAATCAA | inactive: -0.0161 |
| GACATGGC | active: 0.314 |
| CATACCCG | inactive: -0.0573 |

| Sequence | PBM E-score |
| --- | --- |
| GACCCGGA | inactive: -0.222 |
| CCAAGTGC | inactive: -0.122 |
| AACGCGTA | inactive: 0.0291 |
| AGAACACG | active: 0.33 |
| CAACACAG | inactive: 0.186 |
| GGCGTTGA | inactive: -0.0877 |
| GTTACTGA | inactive: 0.0723 |
| ACCTTGCC | inactive: -0.0691 |
| ACGCCAAC | inactive: -0.0473 |
| GGCCGAGA | inactive: -0.214 |
| TGCTGGAA | inactive: -0.00021 |
| ATGTGCGG | inactive: 0.0311 |
| ACTATTCC | inactive: 0.0305 |
| GGTACTGA | inactive: -0.00654 |
| GAGTCGCC | inactive: -0.256 |
| CGGTTGAG | inactive: -0.0733 |
| GCGCTAAA | inactive: -0.0419 |
| GTTCGTTA | inactive: 0.0461 |
| AAGTCGGT | inactive: -0.0447 |
| GGCACTAC | inactive: -0.0645 |
| CGATTTAG | inactive: 0.0168 |
| CCCTTGGC | inactive: -0.267 |
| AAATAGAA | inactive: 0.042 |
| GTCTGGGA | inactive: -0.086 |
